# According to the RNAGym collection of RNA variant scans (doi:10.1093/nar/gkz1192):
# The source gives no read counts; variants with many changes may rest on few reads.
# B1: CPEB3 Ribozyme (parent)
# chain: UAACAGGGGGCCACAGCAGAAGCGUUCACGUCGCAGCCCCUGUCAGAUUCUGGUGAAUCUGCGAAUUCUGCUGUAUAUCUC
# Variants of: B1
# Test: self-cleavage, relative activity (ratio to wild type); higher = more cleavage; in vitro, sequencing
# Summary of the method: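 Barcoded CPEB3 ribozyme mutants, produced by rounds of error-prone PCR, self-cleaved while being transcribed with T7 RNA polymerase for 5 hours at 37°C and during a subsequent 15 min DNase I step before EDTA was added. Sequencing of template-switched cDNA on Illumina gave cleaved and total reads, and DNA sequencing assigned barcodes to variants. Each variant's relative activity is its cleaved/total read fraction divided by the unmutated ribozyme's fraction, averaged across three batches. A variant needed a minimum of 5 reads.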
row,Variant,self-cleavage
1,A20U A28G A45U U48C G63U,0.24
2,A20G U48C A57C,0.28
3,A20G U26A U69A,0.18
4,A20U A21G G24A A35G U43A G52A A56G,0.04
5,A20G U25C G30A U31A U72C U80C,0.23
6,A20G U48C A75U,0.65
7,A20G U26C U43C C81U,0.42
8,A20G U43A A45G U72G,0.77
9,A20G U49C A56U A75U,0.39
10,A20G U69A U74A,0.33
11,A20U A28G U43C U69A,0.05
12,A20G U26A A65G U76C,0.41
13,A20G U51A U72C,1.1
14,A20G U48C U67C U80C,0.39
15,A20G U25C U69C,0.24
16,A20G U51C A64G C68A,0.23
17,A20G U43A G63A A64G C81A,0.76
18,A20G U66C U72A,0.32
19,A20G U51A U72C U78C,0.84
20,A20G U49C C81A,0.24
21,A20G U69C U72C U78C,0.24
22,A20G U31C U54G U60A,0.14
23,A20G U54C U72C,0.97
24,A20G U48C U49A U60C,0.06

row,Variant,self-cleavage
1,A20G U25C U43A U60A,0.18
2,A20G U67C U80G,1.14
3,A20U A28G U31C A56G U74C A75U,0.09
4,A20G U25C U43C U60C,0.25
5,A20U A21G A45G U72C,0.09
6,A20U A21C U26C A57G,0.16
7,A20G U41C U51A G63U,1.16
8,A20G U41C G52C U69C G73U,0.69
9,A20G U41C A64G C68G U74A,0.1
10,A20G U41A U51A,0.65
11,A20G U31G A56G A64C,0.07
12,A20G U25C A77U,0.37
13,A20G U54C A56U A57C U58C,0.12
14,A20G U43G U54C A65G,0.35
15,A20G U72C U76A,1.06
16,A20G U31A U49C U51G G63A U72C U80A,0.21
17,A20G U49C A75G,0.25
18,A20G U54C C81A,1.2
19,A20G U41C U43G U80C,0.36
20,A20G U43A U51C,1.07
21,A20G U31C U54A,0.26
22,A20G U31A C59U,0.46
23,A20G U41C U60A U66C,0.28
24,A20U A21G G24A G30A A45U U54C U80A,0.13

row,Variant,self-cleavage
1,A20G U31C A35G U58C A64G,0.22
2,A20G U51A A64U U78A,0.23
3,A20G U31A U67C U78C,0.4
4,A20G U31A A45G U51C A57G U60C U74A,0.7
5,A20G U41C U51A C71A U72A,0.37
6,A20G U25C C29U A57G U67A C81A,0.05
7,A20G U26C G46C,0.17
8,A20G U41A A57G,0.1
9,A20U A21G U41C U54C,0.4
10,A20G U26C U60A,0.31
11,A20G U41G G73U U80G,0.34
12,A20G U41A A65G U78A,0.07
13,A20G U41C U60A A64G U74A,0.21
14,A20G U31C C62G A65G,0.16
15,A20G U31C A47G G53U,0.53
16,A20G U41A U54A U66C,0.13
17,A20G U26A A35U U43C A45G A64G U74A,0.04
18,A20G U41C G42A,0.28
19,A20U A21G U41C U69C A75U,0.12
20,A20G U41A U54A,0.24
21,A20G U31C C44G,0.21
22,A20G U41C G42C A56U C62U A77U,0.05
23,A20G U60C U67C,0.4
24,A20U A28G A35G A45C U51C,0

row,Variant,self-cleavage
1,A20G U48C A56G,0.36
2,A20G U31C A45G G52A A56U A75G A77G,0.05
3,A20G U49C U72A,0.07
4,A20G U25C C59G,0.1
5,A20G U25C A57G A64G U80A,0.25
6,A20G U31C A57G U67A,0.29
7,A20G U41A U54C C68U,0.08
8,A20G U58A U69A U72A,0.11
9,A20G U26A C71U,0.28
10,A20G U41C A56U A57G,0.29
11,A20G U25C U41A U43C,0.07
12,A20G U43C U49A U69G U80C,0.17
13,A20G U26C A45G U54G A64G U72A A77U,0.08
14,A20G U49C U80A,0.07
15,A20U A21G U67C,0.19
16,A20G U41A A56G A77U,0.11
17,A20G U72C U78A,1.12
18,A20G U54C A64G C71A,0.37
19,A20G U26C A35G U54C A65G,0.45
20,A20G U25C A56G U80A,0.3
21,A20G U25C U60A G63A,0.22
22,A20G U41A G63A,0.21
23,A20G U54G U60C U80C,0.14
24,A20G U43A U74C U80A,1.23

row,Variant,self-cleavage
1,A20G U43A U51A A57G,0.16
2,A20G U41C U60G U74C U78C,0.43
3,A20G U31G U48C,0.04
4,A20G U41C U54C,0.72
5,A20U A28G U31C G33A U58C U74A U78A,0.17
6,A20G U41C U51A A65G A77U,0.46
7,A20G U43C A45G U60A A77U,0.07
8,A20G U25C U49A A77U,0.27
9,A20G U49A G55A U67C U72G A77U,0.42
10,A20G U31C U51C A64G,0.15
11,A20G U41C G52C,1.03
12,A20G U54A U66A U78C,0.3
13,A20G U31A C71U,0.17
14,A20G U43C A57G A77G,0.18
15,A20G U60C U76C U78C,0.13
16,A20G U25C U31C U58A U60A,0.07
17,A20G U25C A64G A77U,0.22
18,A20G U43C A64G U69A,0.04
19,A20G U26A A56G U58C A64G U72C A75G,0
20,A20G U25C U31C A45G U72A,0.06
21,A20G U51C U58C,0.43
22,A20G U25C U54C,0.07
23,A20G U25C G55A,0.11
24,A20G U25C U80C,0.41

row,Variant,self-cleavage
1,A20G U43A A56U A57G U69G,0.28
2,A20G U69C U80A,0.69
3,A20G U41A A56U U78C,0.09
4,A20G U41A U49A,0.19
5,A20G U41A A64U U80C,0.1
6,A20G U26C U31C C32A,0.21
7,A20G U31C U58G,0.07
8,A20G U26C C37U A77U,0.54
9,A20G U41G A56G,0.27
10,A20G U31A C71U U78C,0.1
11,A20G U41C C68G U69A U78C,0.22
12,A20G U26C C29A A64G,0.23
13,A20G U54C U58A,0.3
14,A20G U54C U58C,0.5
15,A20G U54G U69A,0.23
16,A20G U25C U31G U43C,0.19
17,A20U A21G U51C,0.23
18,A20G U41A A64U,0.4
19,A20G U31A A45G,0.46
20,A20G U58G A77U,0.2
21,A20U A21G G70U,0.21
22,A20G U26C A28C G53A A56G,0.17
23,A20G U51G A65G,0.37
24,A20G U26A G36A U41A U69C U72C,0.07

row,Variant,self-cleavage
1,A20G U51A U67G U80A,0.2
2,A20G U25C U31G C38U U78A,0.04
3,A20G U25G U76C A77G,0.09
4,A20G U26C U54G U78C,0.14
5,A20G U48C U49A,0.37
6,A20G U48C U49C,0.26
7,A20G U41C U51C,1.07
8,A20U A21G U41A U54C,0.05
9,A20G U25C A47G,0.33
10,A20G U48C U58C U74C,0.18
11,A20G U41C U49C U51C U60C U78C U80C,0.11
12,A20G U31A U60C U72C,0.36
13,A20G U43A G63U,1.13
14,A20G U60C A64G U80C,0.19
15,A20G U58C U80C,0.43
16,A20G U25C U51C U58C U80C,0.3
17,A20G U25C A45G A56U,0.08
18,A20G U41A A56G U66C G73A A77G,0.03
19,A20U A28G U41A A45G U69A,0.05
20,A20U A21G C40U U41C G42U,0.16
21,A20G U26C U41C,0.41
22,A20G U26A C27G U41C,0.32
23,A20G U25C A65U U72A,0.07
